Results from PubChem BioAssay AID463173 (ICCB-Longwood Screening Facility, Harvard Medical School, 2010).
Among all 52,000 compounds or so, about 1,700 (3.3%) were called active. Rule as the data show it: active = survival mostly below about 52% (no sharp cut-off); inactive = mostly above about 56%. This is one part of the list.

test system: Wild type; assay: growth inhibition of S. aureus wild type versus tarO mutant, primary screen, teichoic acid synthesis inhibitors, RN4220, OD600 (AID 463173); settings: S. aureus RN4220 wild type/DeltatarO growth, OD600, 18 h, active compounds read low, screened at 18.75 µg/mL (by protocol)

SMILES	survival
COc1cccc(C(=O)Nc2ccc3oc(-c4cccc5c(Br)cccc45)nc3c2)c1	inactive: 101%
CCc1ccccc1N(C)C(=O)c1ccc2c(=O)n3c(nc2c1)CCCCC3	inactive: 65%
COc1ccc(S(=O)(=O)NCC(c2ccc(N(C)C)cc2)N2CCc3ccccc32)cc1OC (stereo not drawn)	inactive: 87%
COc1ccc(N2CCN(C(=O)CCc3c(C)nc4cc(-c5ccc(OC)cc5OC)nn4c3C)CC2)cc1	inactive: 118%
CCOC(=O)c1c(NC(=O)c2ccccc2OCC)sc2c1CCC(CC)C2 (stereo not drawn)	active: -1%
Cc1cccc(OCC(=O)Nc2cccc3cccnc23)c1C	inactive: 76%
CCCOc1ccc(C2C(=O)N(C3CCCCCC3)CC(=O)N2CCC)cc1OC (stereo not drawn)	active: -6%
CN(C)S(=O)(=O)c1ccc(C(=O)NCCSc2c(-c3ccc(Cl)cc3)[nH]c3ccccc23)cc1	inactive: 74%
Cc1c(C(=O)OC2CCCCCC2)[nH]c2c1C(=O)CC(c1ccc(Cl)cc1)C2 (stereo not drawn)	inactive: 128%
Cc1ccc2c(c1)C(=O)OC(C(=O)Nc1ncc(Cc3ccc(Cl)cc3)s1)C2 (stereo not drawn)	inactive: 77%
COC(=O)C1=C(C)NC(C)=C(C(=O)OC)C1c1cc2ccc(OC)cc2[nH]c1=O	inactive: 114%
CCOc1ccc(NC(=O)NCc2cccn2Cc2ccccc2)cc1	inactive: 64%
O=C(c1ccc2c(c1)CCN2S(=O)(=O)c1ccc(Cl)cc1)N1CCN(c2ccc(F)cc2)CC1	inactive: 80%
Cc1cccc(C)c1-n1ncc(C(=O)NC2CCCC2)c1C1CCN(C(=O)OC(C)(C)C)CC1	inactive: 73%
O=C(CSc1ccccn1)N1CCc2ccccc21	inactive: 106%
O=C(COc1ccc(Cl)cc1Cl)Nc1cccc2cccnc12	inactive: 67%
N#CC1=C(N)c2ccccc2CC12CCCCC2	inactive: 126%
CC(C)(SC1CC(=O)N(c2ccccc2)C1=O)C(N)C(=O)O (stereo not drawn)	inactive: 80%
COc1ccc(OC)c(NC(=O)CSc2nnc(CNc3ccc(C)cc3C)n2CC2CCCO2)c1 (stereo not drawn)	inactive: 124%
CC(=O)N1CCC(N(Cc2ccco2)C(=O)Nc2ccc(C)c(Cl)c2)CC1	inactive: 121%
Cc1ccc2[nH]c3c(=O)n(CC(=O)N(CCN(C)C)Cc4ccccc4)ncc3c2c1	inactive: 99%
Cc1ccc2oc(-c3ccc(C)c(NC(=O)/C=C/c4ccc(Cl)cc4)c3)nc2c1	inactive: 79%

SMILES	survival
COc1ccc(Nc2c(-c3ccc(C)o3)nc3cc(C)ccn23)cc1	inactive: 69%
Cc1cc(C)cc(NC(=O)Cn2cc(C(=O)c3cccs3)c3ccccc32)c1	inactive: 81%
CCOC(=O)CNC(=O)N1[C@H](c2cccs2)[C@@H](C)C(=O)[C@@H](C)[C@@H]1c1cccs1	inactive: 81%
C/C(=N\NC(=O)CNc1ccccc1)c1ccccc1	inactive: 113%
Cc1ccc(CNC(=O)c2ccc(CN3CC(=O)N4CCCCC4C3=O)cc2)cc1 (stereo not drawn)	inactive: 75%
CCOc1ccc(N2CC(NC(=O)C3CCCCC3)CC2=O)cc1 (stereo not drawn)	inactive: 63%
COc1cc(NC(=O)c2nc3nc(C)cc(C(F)F)n3n2)c(OC)cc1Cl	inactive: 67%
CCc1nnc(NC(=O)c2nc(SCc3ccccc3F)ncc2Cl)s1	inactive: 66%
CCCCOc1ccc(Cn2c(=O)oc3ccc(C)cc32)cc1OC	inactive: 49%
COc1ccc2c(c1)c(=O)c(C(=O)c1ccc(F)cc1)cn2CC(=O)Nc1ccc2c(c1)OCO2	inactive: 91%
CCc1c(C)nc2nncn2c1NCc1ccccc1	inactive: 86%
COc1ccc(S(=O)(=O)N2CCN(c3cccc(C)c3C)CC2)c2ccccc12	inactive: 130%
O=S1(=O)c2ccccc2N(Cc2ccc(Cl)cc2)c2ccccc21	inactive: 129%
Cc1ccc(S(=O)(=O)N(CC(=O)NCCSc2ccc(Cl)cc2)c2ccccc2C)cc1	inactive: 82%
O=C(CCCCCn1c(=O)c2sccc2n(Cc2ccc(Cl)cc2)c1=O)NCc1ccc2c(c1)OCO2	inactive: 86%
Cc1ccc(NC(=O)C2CCN(c3nnc(C)c4c(C)n(-c5ccccc5)nc34)CC2)c(Cl)c1	inactive: 127%
CC(C)CCNC(=O)Cn1c(-c2cccs2)cc2cc(F)ccc21	inactive: 71%
Cc1cc(Br)ccc1NC(=O)c1sc2nc3n(c(=O)c2c1C)CCCC3	inactive: 81%
COc1ccc(Cl)cc1C(=O)Nc1nnc2n1CCS2	inactive: 83%
O=C(NCCc1ccc(Cl)cc1)c1ccc2c(c1)N(Cc1ccc(Cl)cc1)C(=O)CS2	inactive: 98%
C=Cc1ccc(Cn2c(=O)n(-c3cccc(Cl)c3)c(=O)c3c4c(sc32)CN(C(C)=O)CC4)cc1	inactive: 81%
CCN(Cc1ccccc1)Cc1c(O)ccc2oc(C)c(C(=O)Nc3ccc(C)cc3C)c12	inactive: 72%

SMILES	survival
COCCCNC(=O)CCn1c(=O)c2ccccc2n(CC(=O)Nc2cc(Cl)ccc2OC)c1=O	inactive: 83%
Cc1cccc(N2CCn3c2nc2c3c(=O)n(C/C=C/c3ccccc3)c(=O)n2C)c1	inactive: 84%
CCCCN(CC)c1nc(-c2ccccc2F)nc2ccccc12	inactive: 71%
O=C(Nc1ccccc1C(=O)N1CCOCC1)C1COc2ccccc2O1 (stereo not drawn)	inactive: 105%
S=C1NC2=C(CCCC2)C2(CCCCC2)N1	inactive: 90%
CN1C(C(=O)Nc2cccc(O)c2)=CC(c2ccco2)=NS1(=O)=O	inactive: 86%
Cc1cc(C)c(NC(=O)Cn2nnc(S(=O)(=O)c3ccc(C)c(C)c3)c2N)c(C)c1	inactive: 99%
CC(C)c1ccc(NC(=O)N2c3ccccc3Sc3ccccc32)cc1	active: 5%
COc1ccc(-c2cc(C(=O)N3CCN(c4ccccc4)CC3)no2)cc1	active: 16%
CCN(CC)S(=O)(=O)c1ccc2c(c1)c(=O)c(C(=O)N1CCN(c3cccc(Cl)c3)CC1)cn2C	inactive: 91%
CCOc1ccccc1CNC(=O)C1CCN(c2nc3ccccc3nc2C(F)(F)F)CC1	inactive: 73%
COc1ccc(-c2n[nH]c3c2cnc2cc(OC)c(OC)cc23)cc1	inactive: 88%
CCc1ccc(C(=O)c2cn(CC(=O)Nc3ccc4c(c3)OCO4)c3ccc(F)cc3c2=O)cc1	inactive: 85%
Cn1c(=O)oc2cc(S(=O)(=O)NC(Cc3ccccc3)C(=O)NCc3ccccc3Cl)ccc21 (stereo not drawn)	inactive: 144%
COc1cc(OC)c(NC(=O)c2ccc3c(c2)N(Cc2ccc(C)cc2)CCS3)cc1Cl	inactive: 89%
Cc1cccc(C2N=C(N)Nc3nc4ccccc4n32)c1 (stereo not drawn)	inactive: 125%
Cc1ccc(CSC2=Nc3ccccc3C3=NC(CC(=O)NCc4ccc5c(c4)OCO5)C(=O)N23)cc1 (stereo not drawn)	inactive: 74%
COc1cc2[nH]c(=O)c(C(=O)NCCN3CCCC3)c(O)c2cc1OC	inactive: 114%
Cc1ccc(-n2ncc(C(=O)NC3CCN(Cc4ccccc4)CC3)c2C2CCN(C(=O)OC(C)(C)C)CC2)cc1C	inactive: 73%
O=C(Nc1ccc2nc(SCC(=O)N3CCCc4ccccc43)sc2c1)c1ccc(Cl)cc1	inactive: 85%
CCCS(=O)(=O)Nc1cc(-c2cn3ccc(C)cc3n2)ccc1C	inactive: 97%
Cc1ccc(OCCn2cc(C=C(C#N)C#N)c3ccccc32)cc1	inactive: 105%

SMILES	survival
O=C(Cn1c2[n+](c3ccccc31)CC(O)CS2)N1CCCCC1 (stereo not drawn)	inactive: 102%
COc1ccc(-n2c(=O)c3ccccc3n(Cc3ccccc3Cl)c2=O)cc1	inactive: 117%
CC(Sc1nc(=O)cc(N)n1CCc1ccccc1)C(=O)Nc1cccc(Cl)c1 (stereo not drawn)	inactive: 72%
CCC(C(=O)NCCc1cc(OC)ccc1OC)n1nc(C)c2c(C)n(-c3ccccc3)nc2c1=O (stereo not drawn)	inactive: 73%
CCOc1ccccc1NC(=O)Cn1c(=O)n(Cc2cccs2)c(=O)c2cccnc21	inactive: 62%
Fc1ccc(-c2nn(-c3ccc(Cl)cc3)c3c2cnc2ccc(F)cc23)cc1	inactive: 45%
Cc1ccc(S(=O)(=O)c2nnn3c2nc(N2CCOCC2)c2sccc23)cc1C	inactive: 76%
Cc1ccc(Nc2sc(C(=O)c3ccc(F)cc3)c(N)c2S(=O)(=O)c2ccc(C)cc2)cc1	inactive: 136%
COc1ccccc1N1CCN(S(=O)(=O)c2c(C)sc3ncn(CC(=O)Nc4ccc(C)cc4Br)c(=O)c23)CC1	inactive: 75%
COc1ccc(C(=O)Nc2nc3n(n2)C(c2ccc(Cl)cc2)C=C(c2ccccc2)N3)cc1OC (stereo not drawn)	inactive: 75%
Cc1ccc(C)c(CN2C(=O)c3ccccc3S(=O)c3ccc(C(=O)N4CCOCC4)cc32)c1 (stereo not drawn)	inactive: 89%
CC(C)(C)n1nnnc1C(c1cc2cc3c(cc2[nH]c1=O)OCO3)N(Cc1ccccc1)Cc1cccnc1 (stereo not drawn)	inactive: 105%
O=C(Nc1ccccc1)c1ccc(F)cc1	inactive: 110%
Cc1ccc(CNC(=O)C2CCCN(c3ncnc4onc(-c5ccc(F)cc5)c34)C2)cc1 (stereo not drawn)	inactive: 80%
CC1=C(C)CS(=NC(=O)c2ccccc2)N(C(=O)c2ccccc2)C1 (stereo not drawn)	inactive: 119%
O=C(CN1C(=O)CCSc2ccccc21)Nc1ccc(C(F)(F)F)cc1	inactive: 115%
CN1CC(=O)Nc2cc(C(=O)O)ccc21	inactive: 72%
COc1ccc(OC)c(NC(=O)Cn2c(=O)cc(C)c3c(C)nn(-c4cccc(Cl)c4C)c32)c1	inactive: 111%
Cc1ccccc1-c1noc(-c2nnn(-c3ccccc3C)c2N)n1	inactive: 113%
Cc1ccc(-n2cc(C(=O)OCc3ccc(F)c(F)c3)c3ccccc3c2=O)cc1	inactive: 86%
CCOc1ccccc1C(=O)Nc1ccc(S(=O)(=O)N(Cc2ccccc2)c2ccccc2)cc1	inactive: 121%
CCOC(=O)c1ccccc1NC(=O)Cn1ccn2nc(-c3ccc(OCC)cc3)cc2c1=O	inactive: 115%
